For 4 molecules, binding results are on record in publication PMC10121561, “Control of a hippocampal recurrent excitatory circuit by cannabinoid receptor-interacting protein Gap43” (Nature Communications, 2023).

Protein sequences, listed by entry. Tags and fused reporters are not part of them.
UniProt P21554: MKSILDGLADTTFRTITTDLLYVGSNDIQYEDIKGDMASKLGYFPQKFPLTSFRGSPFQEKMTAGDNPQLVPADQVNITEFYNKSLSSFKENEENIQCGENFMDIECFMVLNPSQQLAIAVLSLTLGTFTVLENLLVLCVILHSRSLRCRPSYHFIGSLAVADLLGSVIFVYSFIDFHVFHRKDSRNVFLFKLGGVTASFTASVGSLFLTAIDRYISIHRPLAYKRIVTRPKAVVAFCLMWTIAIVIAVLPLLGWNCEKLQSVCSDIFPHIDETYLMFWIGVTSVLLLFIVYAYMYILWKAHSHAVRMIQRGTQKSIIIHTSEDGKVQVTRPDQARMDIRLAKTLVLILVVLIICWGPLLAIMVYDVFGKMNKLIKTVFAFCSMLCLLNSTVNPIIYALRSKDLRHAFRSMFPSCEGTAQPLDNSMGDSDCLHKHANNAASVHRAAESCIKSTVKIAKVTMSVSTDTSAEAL
UniProt P06837: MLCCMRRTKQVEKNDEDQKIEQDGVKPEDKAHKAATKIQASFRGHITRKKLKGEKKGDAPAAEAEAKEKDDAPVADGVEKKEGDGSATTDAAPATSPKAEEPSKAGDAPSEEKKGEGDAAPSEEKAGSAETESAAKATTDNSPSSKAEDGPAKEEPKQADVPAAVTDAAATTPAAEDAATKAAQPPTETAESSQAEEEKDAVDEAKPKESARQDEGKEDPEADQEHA
UniProt P47746: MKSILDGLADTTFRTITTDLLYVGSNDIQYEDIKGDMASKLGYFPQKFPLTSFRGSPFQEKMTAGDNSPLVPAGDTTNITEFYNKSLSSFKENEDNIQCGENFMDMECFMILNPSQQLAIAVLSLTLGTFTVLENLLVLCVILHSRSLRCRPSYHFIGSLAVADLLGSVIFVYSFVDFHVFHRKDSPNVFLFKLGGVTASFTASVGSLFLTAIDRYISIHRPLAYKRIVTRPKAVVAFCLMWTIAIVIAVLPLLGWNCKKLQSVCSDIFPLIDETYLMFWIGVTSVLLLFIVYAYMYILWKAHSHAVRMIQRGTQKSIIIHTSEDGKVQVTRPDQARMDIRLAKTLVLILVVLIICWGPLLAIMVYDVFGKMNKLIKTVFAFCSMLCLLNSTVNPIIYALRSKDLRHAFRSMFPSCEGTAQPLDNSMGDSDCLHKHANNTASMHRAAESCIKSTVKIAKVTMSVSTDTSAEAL

Substitutions are numbered along the chain they refer to. In names and notes the source's numbering stands. No constants are given. Whether binding was seen depends on the method and setting. Binding seen in cells or lysates may run through a third protein. Some binding calls cover weakened binding; strength is not graded here.

One experiment has as its target T1, RLuc-tagged CB1R (UniProt P21554 1-472).
T1 construct: type-1 cannabinoid receptor (CB1R); also called CB1R-RLuc; source: HEK293T, transfected, in live cells
Put plainly: FRET or BRET; BRET saturation in live HEK293T cells expressing CB1R-RLuc and increasing amounts of GFP-GAP43 forms; 3 independent experiments.

The target in experiment [1] is growth-associated protein of 43 kDa (GAP43), endogenous mouse (mouse (endogenous in mouse hippocampus)) (UniProt P06837). The experiment can be described thus: proximity ligation; in situ PLA for CB1R and GAP43 in hippocampal synaptosomes from WT mice, Cnr1-/- mice as control.
The target is the same in experiment [2]. Put plainly: co-IP; endogenous proteins in primary mouse hippocampal neurons and in mouse whole-hippocampus extracts; IP with anti-GAP43 antibody or control IgG.
The target is the same in experiment [3]. Put plainly: proximity ligation; PLA in hippocampal sections (DG inner molecular layer) of 3-month-old mice of different Cnr1 genotypes (knockout and rescue lines).
Another experiment addresses myc-tagged CB1R (UniProt P21554). The experiment can be described thus: proximity ligation; PLA with anti-c-myc and anti-GFP antibodies in HEK293T cells transfected with CB1R-myc plus GFP-GAP43 forms; dots per GFP-transfected cell.
For a further experiment, the target named is HA-tagged CB1R (UniProt P21554). The experiment can be described thus: co-IP; HEK293T cells co-transfected with HA-CB1R and GAP43 forms; IP with anti-HA antibody, blot with anti-pan-GAP43 antibody.

For the molecule “GFP-GAP43(S41A) (from UniProt P17677 1-238)”, the binding result with RLuc-tagged CB1R is listed as “no binding”.

Regarding “type-1 cannabinoid receptor (CB1R), endogenous mouse (from UniProt P47746 1-473)”, the binding entry in experiment [1], in experiment [2] and in experiment [3] was “binds” throughout.

B1: GFP-GAP43(WT) (natural protein, UniProt P17677 1-238, looked up)
chain: MLCCMRRTKQVEKNDDDQKIEQDGIKPEDKAHKAATKIQASFRGHITRKKLKGEKKDDVQAAEAEANKKDEAPVADGVEKKGEGTTTAEAAPATGSKPDEPGKAGETPSEEKKGEGDAATEQAAPQAPASSEEKAGSAETESATKASTDNSPSSKAEDAPAKEEPKQADVPAAVTAAAATTPAAEDAAAKATAQPPTETGESSQAEENIEAVDETKPKESARQDEGKEEEPEADQEHA
notes: growth-associated protein of 43 kDa (GAP43), wild type; In the co-IP and DMR experiments the text writes GAP43(WT) without GFP; source: HEK293T, transfected, in cells or lysate
Turning to B1, the binding result with myc-tagged CB1R was “binds”.

B2: GFP-GAP43(S41D) (natural protein, UniProt P17677 1-238, looked up)
chain: B1 chain with S41D
notes: growth-associated protein of 43 kDa (GAP43) with the phospho-mimetic point mutation S41D; In the co-IP and DMR experiments the text writes GAP43(S41D) without GFP; also called phospho-mimetic GAP43; source: HEK293T, transfected, in cells or lysate
For B2, the binding entry with myc-tagged CB1R and in the experiment with HA-tagged CB1R was “binds” in each case.
